Laboratory results taken from PubChem BioAssay AID1347120 (National Center for Advancing Translational Sciences (NCATS), 2019).
Among all 390,000 compounds or so, about 930 (0.24%) were called active. This list was built around the results that the source calls inconclusive (neither active nor inactive); the mix of calls is not that of the screen. Calls come from the whole dose curve; as a rule, active = well fitted activation curve with a large enough effect; inconclusive = small, poorly fitted or top-dose-only effect; inactive = no such curve, though single readings can be large or run the other way. Potencies of inconclusive entries are doubtful fits and often do not repeat.

Assay: qHTS for Suppressors of FUS Proteinopathy: Primary screen using FUS-linked yeast assay; note: nearly all actives have a fitted effect of over 55% in size;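 for growth rescue (activation): plate controls were DMSO vehicle for no effect and reference control for full effect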
Details: S. cerevisiae FUS-expressing, OD600, 24 h; Potency: growth rescue; growth rescue (activation): at 76.6 µM (top of the series)
Summary of the method: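 Cultures pregrown in 2.5% raffinose medium are shifted to minimal medium containing 2% galactose to express toxic FUS. Compounds are tested at several concentrations. After 24hr at 30C, growth is quantified at 600 nm absorbance.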
Potency is the fitted concentration of half-maximal effect; tags give direction and shape of the fitted curve.

Row | SMILES | Potency | growth rescue (activation)
1 | CC(NC(=O)CSc1nnc2n1CCCCC2)c1ccccc1Cl (stereo not given) | inconclusive: 5.01 µM [activator, single point] | 
2 | COc1cccc(CN(C)C(=O)c2cccc(S(=O)(=O)N3CCN(c4ccccc4)CC3)c2)c1 | inconclusive: 10 µM [activator, partial curve] | 
3 | Cc1ccc(S(=O)(=O)NCCc2ccccc2)cc1 |  | inactive: -0.635%
4 | C[C@@H]1CN([C@@H](C)CO)C(=O)c2cc(C3=CCCCC3)cnc2O[C@H]1CN(C)C(=O)Nc1cccc(F)c1 | inconclusive: 22.4 µM [activator, single point] | 
5 | CCc1ccc(NC(=O)Nc2ccccc2OCc2cc(=O)n3ccccc3n2)cc1 |  | inactive: -11.8%
6 | COC(=O)[C@@H](CC(C)C)NS(=O)(=O)N(Cc1ccccc1)[C@@H](CC(C)C)C(=O)OC | inconclusive: 11.2 µM [activator, partial curve] | 
7 | CC1=C(C(=O)N2CCCCCC2)CC(CC(=O)NCc2cccc3ccccc23)C(=O)N1CCC1=CCCCC1 (stereo not given) | inconclusive: 12.6 µM [activator, partial curve, poor fit] | 
8 | COC(=O)c1ccc(Cl)c(NC(=O)NC23CC4CC(CC(C4)C2)C3)c1 |  | inactive: 7.92%
9 | COc1ccc2c(CC(=O)NCc3ccc4c(c3)OCO4)coc2c1 | inconclusive: 31.6 µM [activator, partial curve, poor fit] | 
10 | CCOC(=O)c1ccccc1NC(=O)CSc1nnc(Cc2cccn2C)n1-c1ccc(F)cc1 | inconclusive: 35.5 µM [activator, partial curve, poor fit] | 
11 | O=C1CCCN1CCCN=c1c([N+](=O)[O-])nn(-c2ccc(Cl)cc2)n1O | inconclusive: 25.1 µM [activator, partial curve, poor fit] | 
12 | CCOC(=O)[C@]12CCCCC/C=C\1N(Cc1ccc(OC)cc1)C(=O)[C@H]2CC(=O)NCC1CCCCC1 | inconclusive: 20 µM [activator, partial curve, poor fit] | 
13 | Cc1ccc(S(=O)(=O)Nc2ccc(O)c3ccccc23)c(C)c1 |  | inactive: 24.4%
14 | CC(C)(C)NC(=O)C(c1ccc(C(F)(F)F)cc1)n1c(=O)c(-c2ccccc2)nc2ccccc21 (stereo not given) | inconclusive: 25.1 µM [activator, partial curve] | 
15 | O=C1N[C@@H](Cc2ccccc2)COC(=O)[C@H](Cc2ccc(F)cc2)CC/C=C/C[C@H]1CC(=O)N(CCO)Cc1ccccc1 | active: 22.4 µM | 
16 | CCOC(=O)c1cnc(N2CCN(c3cccc(C)c3C)CC2)c2ccccc12 |  | inactive: -15.4%
17 | COc1ccc(-n2c(/C=C(\C)O)nc(=O)c3c(C)cc(C)nc32)cc1 |  | inactive: 10.5%
18 | O=C1N[C@@H](c2ccccc2)COC(=O)[C@@H](Cc2ccc(F)cc2)CC/C=C/C[C@H]1CC(=O)N(CCO)Cc1ccccc1 | inconclusive: 17.8 µM [activator, partial curve, poor fit] | 
19 | CC(C)(C)OC(=O)[C@H](Cc1ccccc1)NC(=O)c1[nH]cnc1C(=O)Nc1cccc(Cl)c1 | inconclusive: 50.1 µM [activator, single point] | 
20 | CCc1ccc(N(CC(=O)NC2CCCC2)C(=O)CCC(=O)Nc2cc(C)on2)cc1 | inconclusive: 14.1 µM [activator, partial curve, poor fit] | 

Row | SMILES | Potency | growth rescue (activation)
21 | C#CCOCCOCCOCCNc1nc(N2CCN(C(=O)[C@H]([C@@H](C)CC)n3cc(CCCCN)nn3)CC2)nc(N2CCN(C(=O)[C@H](Cc3ccc(O)cc3)n3cc(CCO)nn3)CC2)n1 |  | inactive: 30.6%
22 | O=C(Nc1cc(S(=O)(=O)N2CCOCC2)ccc1N1CCOCC1)c1ccccc1[N+](=O)[O-] |  | inactive: 14.7%
23 | Cc1ccc(/C=c2\sc3nc(-c4ccccc4Br)nn3c2=O)o1 | inconclusive: 28.2 µM [activator, partial curve, poor fit] | 
24 | Cc1nn(CC(=O)O)c(C)c1N |  | inactive: 3.27%
25 | COC(=O)[C@@]12CCCN1[C@H](c1ccc(-c3ccc4c(c3)OCO4)c(OC)c1)[C@H]1C(=O)N(C)C(=O)[C@H]12 | inconclusive: 50.1 µM [activator, single point] | 
26 | CCCCNS(=O)(=O)/C=C/c1ccccc1CNC(=O)OC(C)(C)C |  | inactive: 5.8%
27 | CC(=O)C1=C(c2ccc(F)cc2)N(C(C)=O)n2c(nnc2C2CCCCC2)S1 | inconclusive: 7.08 µM [activator, partial curve] | 
28 | Cc1ccc(C2CN=NC23CCc2ccccc2C3=O)cc1 (stereo not given) | inconclusive: 39.8 µM [activator, single point] | 
29 | CC(C)(C)c1ccc(S(=O)(=O)NC(=O)C2(C)CCN2C(=O)C2CCCCC2)cc1 (stereo not given) | inconclusive: 28.2 µM [activator, single point] | 
30 | CCCCN(C(=O)CSc1nc2ccccc2s1)c1c(N)n(CCCC)c(=O)[nH]c1=O | inconclusive: 7.94 µM [activator, partial curve, poor fit] | 
31 | Nn1c(SCC(=O)NC2CCCCC2)nnc1-c1cc(-c2ccc(Cl)cc2)n[nH]1 |  | inactive: -2.18%
32 | CS(=O)(=O)N1CCN(c2ccccc2NC(=O)Cc2ccc(Cl)cc2)CC1 |  | inconclusive: 72% [activator]
33 | Cc1ccc2nc(NNC(=O)c3ccc(S(=O)(=O)N4CCc5ccccc5C4)cc3)sc2c1 | inconclusive: 31.6 µM [activator, partial curve, poor fit] | 
34 | CCOc1ccc(NS(=O)(=O)c2cc(C(=O)N3CCCC3)ccc2Cl)cc1 |  | inactive: 14.7%
35 | COc1ccc([C@H]2N[C@]3(CCCN(Cc4ccc(Cl)cc4)C3=O)[C@H]3C(=O)N(Cc4ccccc4)C(=O)[C@@H]23)cc1 | inconclusive: 22.4 µM [activator, single point] | 
36 | COc1cccc(Oc2cncnc2-c2ccc(OC)cc2O)c1 |  | inactive: 20.8%
37 | O=C(NCCc1ccco1)c1cc(COc2cccc(C(F)(F)F)c2)on1 |  | inactive: 10.6%
38 | COC(=O)C(C)Oc1cc(OC(C)C(=O)OC)c2c(C)c(Cl)c(=O)oc2c1 (stereo not given) |  | inactive: 34.6%
39 | COc1cc(NC(=O)N2CCc3nc(NCc4cccc(Oc5ccccc5)c4)ncc3C2)cc(OC)c1OC | inconclusive: 17.8 µM [activator, partial curve] | 
40 | COc1ccc(-c2cn3cccnc3n2)cc1NC(=O)Nc1cc(C)ccc1C |  | inactive: 18.7%

Row | SMILES | Potency | growth rescue (activation)
41 | Cc1ccccc1S(=O)(=O)Nc1nc2ccccc2nc1Cl |  | inactive: 5.81%
42 | CCOc1ccccc1CN1CCc2nc(N3CCN(C)CC3)ncc2C1 |  | inactive: -17.6%
43 | C#CCOCCOCCOCCNc1nc(N2CCN(C(=O)CCCCCCCCCCNC(=O)Cn3cc(CCCCCN)nn3)CC2)nc(N2CCN(C(=O)CCCCCCCCCCNC(=O)[C@@H](CCC(=O)O)n3cc(CCCCCN)nn3)CC2)n1 | inconclusive: 12.6 µM [activator, partial curve, poor fit] | 
44 | Cc1ccc(C)c(N2CCN(C(=O)C3CCN(c4nc(C)cc(C)n4)CC3)CC2)c1 | inconclusive: 35.5 µM [activator, partial curve, poor fit] | 
45 | Cc1cc(/C=C2\C(=N)N3N=C(c4ccco4)SC3=NC2=O)c(C)n1Cc1ccccc1 | inconclusive: 35.5 µM [activator, partial curve] | 
46 | Cc1c(C(=O)NCc2cccs2)oc2ccccc12 | inconclusive: 11.2 µM [activator, single point] | 
47 | Cc1cc(C)cc(NC(=O)c2sc3nc4n(c(=O)c3c2C)N=C(c2ccccc2)CS4)c1 |  | inactive: -18.5%
48 | COc1ccc(OC)c(-c2nnc(-c3ccc(C)o3)o2)c1 |  | inactive: -0.122%
49 | Cc1ccc(C(O)P(=O)(OCCC(C)C)c2ccc(N(C)C)cc2)cc1 (stereo not given) | inconclusive: 11.2 µM [activator, partial curve] | 
50 | O=C(NCc1ccco1)C(c1cccs1)N(C(=O)C1COc2ccccc2O1)c1cccc(O)c1 (stereo not given) | inconclusive: 31.6 µM [activator, partial curve, poor fit] | 
51 | O=C(O)CSc1cc(C(=O)c2ccccc2O)cn2c(=O)c3c(-c4ccccc4)csc3nc12 | inconclusive: 10 µM [activator, partial curve] | 
52 | O=C(Nc1ccc2ccccc2c1)C(c1ccccc1F)n1c(=O)c(-c2cc3ccccc3[nH]2)nc2ccccc21 (stereo not given) | inconclusive: 50.1 µM [activator, single point] | 
53 | CCCn1c(C)cc(C(=O)COc2ncnc3sccc23)c1C | inconclusive: 28.2 µM [activator, single point] | 
54 | COc1ccc(C2=C(C)C(=O)N(Cc3ccc(C(=O)NC(C)c4ccccc4)cc3)S2(=O)=O)cc1 (stereo not given) | inconclusive: 35.5 µM [activator, partial curve, poor fit] | 
55 | CCOc1ccc(N2CC(c3nc4ccccc4n3CCCCOc3ccc(OC)cc3)CC2=O)cc1 (stereo not given) | inconclusive: 28.2 µM [activator, partial curve, poor fit] | 
56 | Cc1ccccc1CSCC1Nc2ccc(C(=O)NCCc3ccccc3)cc2NC1=O (stereo not given) | inconclusive: 31.6 µM [activator, partial curve] | 
57 | CCOc1ccccc1NC(=O)Cn1ncc2c([nH]c3ccccc32)c1=O |  | inactive: -5.17%
58 | C[C@H](CO)N1C[C@H](C)[C@@H](CN(C)C(=O)Nc2ccc(C(F)(F)F)cc2)Oc2ccc(NC(=O)Nc3ccc4c(c3)OCO4)cc2C1=O | inconclusive: 28.2 µM [activator, single point] | 
59 | COc1ccc(OC)c(CNC(=O)c2ccc3nc(C(C)C)oc3c2)c1 | inconclusive: 44.7 µM [activator, single point] | 
60 | CC[C@]12c3[nH]c4cc(-c5ccco5)ccc4c3CCN1C(=O)[C@@H](CC(=O)NCC13CC4CC(CC(C4)C1)C3)C[C@@H]2C(=O)N1CCN(C(=O)C2CC2)CC1 | inconclusive: 11.2 µM [activator, full curve, poor fit] | 
